# From the supplement of paper PMC8728848
# The other results are listed elsewhere or left out.
# Key:
# Test in all cases: glycan array binding signal (z-score within array); higher = stronger binding
# Settings in all cases: glycan notation: IUPAC condensed, linker removed
# [1] = target: Neu5Ac(a2-6)Gal(b1-4)GlcNAc(b1-3)Gal(b1-4)GlcNAc(b1-3)Gal(b1-4)GlcNAc(b1-2)Man(a1-3)[Neu5Ac(a2-6)Gal(b1-4)GlcNAc(b1-3)Gal(b1-4)GlcNAc(b1-3)Gal(b1-4)GlcNAc(b1-2)Man(a1-6)]GalNAc
# In short: (§1)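 The binding signal is a Z-score computed within each array and averaged over linkers. Arrays of the same protein sequence at different concentrations or buffers were also averaged together. Data originate from 3228 arrays in the Consortium for Functional Glycomics database, kept only where the protein sequence was available.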
# [2] = target: Neu5Ac(a2-6)Gal(b1-4)GlcNAc(b1-3)Gal(b1-4)GlcNAc(b1-3)GalNAc
# In short: as §1
# [3] = target: Neu5Ac(a2-6)Gal(b1-4)GlcNAc(b1-3)Gal(b1-4)GlcNAc(b1-3)[Neu5Ac(a2-6)Gal(b1-4)GlcNAc(b1-3)Gal(b1-4)GlcNAc(b1-6)]GalNAc
# In short: as §1
# [4] = target: Neu5Ac(a2-6)Gal(b1-4)GlcNAc(b1-3)Gal(b1-4)GlcNAc(b1-6)[Gal(b1-3)]GalNAc
# In short: as §1
# [5] = target: Neu5Ac(a2-6)Gal(b1-4)GlcNAc(b1-3)Gal(b1-4)[Fuc(a1-3)]GlcNAc(b1-3)Gal(b1-4)[Fuc(a1-3)]GlcNAc
# In short: as §1
# [6] = target: Neu5Ac(a2-6)Gal(b1-4)GlcNAc(b1-3)GalNAc
# In short: as §1
# [7] = target: Neu5Ac(a2-6)Gal(b1-4)GlcNAc(b1-3)[Neu5Ac(a2-6)Gal(b1-4)GlcNAc(b1-6)]GalNAc
# In short: as §1
# [8] = target: Neu5Ac(a2-6)Gal(b1-4)GlcNAc(b1-6)GalNAc
# In short: as §1
# [9] = target: Neu5Ac(a2-6)Gal(b1-4)GlcNAc(b1-6)[Gal(b1-3)GlcNAc(b1-3)]Gal(b1-4)Glc
# In short: as §1
# [10] = target: Neu5Ac(a2-6)Gal(b1-4)GlcNAc(b1-6)[Gal(b1-3)]GalNAc
# In short: as §1
# [11] = target: Neu5Ac(a2-6)Gal(b1-4)GlcNAc6S
# In short: as §1
# Neu5Ac(a2-6)GalNAc = target: Neu5Ac(a2-6)GalNAc
# In short: as §1
# [12] = target: Neu5Ac(a2-6)GalNAc(b1-4)GlcNAc
# In short: as §1
# [13] = target: Neu5Ac(a2-6)GalNAc(b1-4)GlcNAc6S
# In short: as §1
# [14] = target: Neu5Ac(a2-6)GlcNAc(b1-4)GlcNAc
# In short: as §1
# [15] = target: Neu5Ac(a2-6)GlcNAc(b1-4)GlcNAc(b1-4)GlcNAc
# In short: as §1
# Neu5Ac(a2-8)Neu5Ac = target: Neu5Ac(a2-8)Neu5Ac
# In short: as §1
# [16] = target: Neu5Ac(a2-8)Neu5Ac(a2-3)Gal(b1-3)GalNAc(b1-4)[Neu5Ac(a2-3)]Gal(b1-4)Glc
# In short: as §1
# [17] = target: Neu5Ac(a2-8)Neu5Ac(a2-3)Gal(b1-3)GalNAc(b1-4)[Neu5Ac(a2-8)Neu5Ac(a2-3)]Gal(b1-4)Glc
# In short: as §1
# [18] = target: Neu5Ac(a2-8)Neu5Ac(a2-3)Gal(b1-4)Glc
# In short: as §1
# [19] = target: Neu5Ac(a2-8)Neu5Ac(a2-3)Gal(b1-4)GlcNAc
# In short: as §1
# [20] = target: Neu5Ac(a2-8)Neu5Ac(a2-3)[Gal(b1-3)GalNAc(b1-4)]Gal(b1-4)Glc
# In short: as §1
# [21] = target: Neu5Ac(a2-8)Neu5Ac(a2-3)[GalNAc(b1-4)]Gal(b1-4)Glc
# In short: as §1
# [22] = target: Neu5Ac(a2-8)Neu5Ac(a2-8)Neu5Ac
# In short: as §1
# [23] = target: Neu5Ac(a2-8)Neu5Ac(a2-8)Neu5Ac(a2-3)Gal(b1-4)Glc
# In short: as §1
# [24] = target: Neu5Ac(a2-8)Neu5Ac(a2-8)Neu5Ac(a2-3)[Gal(b1-3)GalNAc(b1-4)]Gal(b1-4)Glc
# In short: as §1
# [25] = target: Neu5Ac(a2-8)Neu5Ac(a2-8)Neu5Ac(a2-3)[GalNAc(b1-4)]Gal(b1-4)Glc
# In short: as §1
# [26] = target: Neu5Ac(a2-8)Neu5Ac(a2-8)Neu5Ac(a2-8)Neu5Ac(a2-3)[GalNAc(b1-4)]Gal(b1-4)Glc
# In short: as §1
# [27] = target: Neu5Ac(a2-8)Neu5Gc(a2-3)Gal(b1-4)GlcNAc
# In short: as §1
# [28] = target: Neu5Ac(b2-6)Gal(b1-4)GlcNAc
# In short: as §1
# Neu5Ac(b2-6)GalNAc = target: Neu5Ac(b2-6)GalNAc
# In short: as §1
# [29] = target: Neu5Ac9Ac(a2-3)Gal(b1-3)GlcNAc
# In short: as §1
# [30] = target: Neu5Ac9Ac(a2-3)Gal(b1-4)GlcNAc
# In short: as §1
# [31] = target: Neu5Ac9Ac(a2-6)Gal(b1-4)GlcNAc
# In short: as §1
# [32] = target: Neu5Gc(a2-3)Gal(b1-3)GlcNAc
# In short: as §1
# [33] = target: Neu5Gc(a2-3)Gal(b1-3)[Fuc(a1-4)]GlcNAc
# In short: as §1
# Neu5Gc(a2-3)Gal(b1-4)Glc = target: Neu5Gc(a2-3)Gal(b1-4)Glc
# In short: as §1
# [34] = target: Neu5Gc(a2-3)Gal(b1-4)GlcNAc
# In short: as §1
# [35] = target: Neu5Gc(a2-3)Gal(b1-4)GlcNAc(b1-3)Gal(b1-4)GlcNAc(b1-2)Man(a1-3)[Neu5Gc(a2-3)Gal(b1-4)GlcNAc(b1-3)Gal(b1-4)GlcNAc(b1-2)Man(a1-6)]Man(b1-4)GlcNAc(b1-4)GlcNAc
# In short: as §1
# [36] = target: Neu5Gc(a2-3)Gal(b1-4)[Fuc(a1-3)]GlcNAc
# In short: as §1
# [37] = target: Neu5Gc(a2-6)Gal(b1-4)GlcNAc
# In short: as §1
# Neu5Gc(a2-6)GalNAc = target: Neu5Gc(a2-6)GalNAc
# In short: as §1
# [38] = target: Neu5Gc(a2-8)Neu5Ac(a2-3)Gal(b1-4)GlcNAc
# In short: as §1
# [39] = target: Neu5Gc(a2-8)Neu5Gc(a2-3)Gal(b1-4)GlcNAc
# In short: as §1
# [40] = target: Neu5Gc(a2-8)Neu5Gc(a2-3)Gal(b1-4)GlcNAc(b1-3)Gal(b1-4)GlcNAc
# In short: as §1
# [41] = target: Neu5Gc(a2-8)Neu5Gc(a2-6)Gal(b1-4)GlcNAc
# In short: as §1
# [42] = target: Neu5Gc(b2-6)Gal(b1-4)GlcNAc
# In short: as §1
binder,measurement,setting,value
LFA (Limax flavus) (protein) MSVLFLAASFLLLASFELVAAQGCPRQDPGDWIVIQRRLNADVNFYRGWADYKHGFGDLRCNFWLGNEKIHQLTSHGRYKLRVEFTFNNKSYFAEYSTFKILGEADKYKLQVGGYSGNAGDALTFHNGMAFSTNDRDNDADSIDCAKVYHGAWWYKTCHESNLNGKWGSKKYGEGLNWKAKTTFTATATSSLLKIKALK,glycan array binding signal (z-score),[1],1.62
same,glycan array binding signal (z-score),[2],-0.211
same,glycan array binding signal (z-score),[3],2.5
same,glycan array binding signal (z-score),[4],0.2
same,glycan array binding signal (z-score),[5],-0.033
same,glycan array binding signal (z-score),[6],-0.064
same,glycan array binding signal (z-score),[7],-0.163
same,glycan array binding signal (z-score),[8],-0.113
same,glycan array binding signal (z-score),[9],-0.3
same,glycan array binding signal (z-score),[10],-0.227
same,glycan array binding signal (z-score),[11],-0.325
same,glycan array binding signal (z-score),Neu5Ac(a2-6)GalNAc,-0.345
same,glycan array binding signal (z-score),[12],-0.35
same,glycan array binding signal (z-score),[13],-0.267
same,glycan array binding signal (z-score),[14],-0.042
same,glycan array binding signal (z-score),[15],0.348
same,glycan array binding signal (z-score),Neu5Ac(a2-8)Neu5Ac,-0.32
same,glycan array binding signal (z-score),[16],-0.229
same,glycan array binding signal (z-score),[17],-0.235
same,glycan array binding signal (z-score),[18],-0.183
same,glycan array binding signal (z-score),[19],-0.343
same,glycan array binding signal (z-score),[20],-0.054
same,glycan array binding signal (z-score),[21],-0.104
same,glycan array binding signal (z-score),[22],-0.246
same,glycan array binding signal (z-score),[23],-0.269
same,glycan array binding signal (z-score),[24],-0.353
same,glycan array binding signal (z-score),[25],0.236
same,glycan array binding signal (z-score),[26],-0.179
same,glycan array binding signal (z-score),[27],-0.342
same,glycan array binding signal (z-score),[28],0.055
same,glycan array binding signal (z-score),Neu5Ac(b2-6)GalNAc,-0.284
same,glycan array binding signal (z-score),[29],-0.339
same,glycan array binding signal (z-score),[30],0.463
same,glycan array binding signal (z-score),[31],-0.341
same,glycan array binding signal (z-score),[32],-0.329
same,glycan array binding signal (z-score),[33],-0.328
same,glycan array binding signal (z-score),Neu5Gc(a2-3)Gal(b1-4)Glc,0.149
same,glycan array binding signal (z-score),[34],-0.285
same,glycan array binding signal (z-score),[35],-0.166
same,glycan array binding signal (z-score),[36],-0.306
same,glycan array binding signal (z-score),[37],-0.28
same,glycan array binding signal (z-score),Neu5Gc(a2-6)GalNAc,-0.367
same,glycan array binding signal (z-score),[38],-0.232
same,glycan array binding signal (z-score),[39],-0.155
same,glycan array binding signal (z-score),[40],-0.237
same,glycan array binding signal (z-score),[41],-0.336
same,glycan array binding signal (z-score),[42],-0.314
